The results in this text go back to the supplement of paper PMC4604168 (melanoma cell lines).

This is one part of the list. Single values are uncertain, as repeats are few or missing.
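Note: cell number obtained by counting DAPI-stained nuclei in high-throughput microscope images with image analysis software, screen run in 1,536-well plates.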

One test concerns A375. Nature of the test: cell count relative to DMSO control; melanoma cells; higher = more viable cells. To be noted: library dose: low library concentration; 72 h.
The molecule `Cn1c(Nc2ccc(C(F)(F)F)cc2)nc2cc(Oc3ccnc(-c4ncc(C(F)(F)F)[nH]4)c3)ccc21` + COCC[n+]1c2c(n(Cc3cnccn3)c1C)C(=O)c1ccccc1C2=O [YM155] (first compound 0.08 µM, partner dose 0.0004 µM) had a cell count of 63.7%.

The molecule `Clc1ccc(Nc2nnc(Cc3ccncc3)c3ccccc23)cc1` [vatalanib] + C=CCn1c(=O)c2cnc(Nc3ccc(N4CCN(C)CC4)cc3)nc2n1-c1cccc(C(C)(C)O)n1 [MK1775] (first compound 2 µM, partner dose 0.02 µM) yielded a cell count of 51.1%.

`Clc1ccc(Nc2nnc(Cc3ccncc3)c3ccccc23)cc1` [vatalanib] + Nc1cccc2c1CN(C1CCC(=O)NC1=O)C2=O [lenalidomide] (first compound 2 µM, partner dose 1 µM) gave a cell count of 87.5%.

The next test concerns C32. The description is as above. To be noted: library dose: low library concentration; 72 h.
As for `OCc1c[nH]c2ccccc12` [Indole-3-carbinol] + COCC[n+]1c2c(n(Cc3cnccn3)c1C)C(=O)c1ccccc1C2=O [YM155] (first compound 0.8 µM, partner dose 0.0004 µM), the cell count turned out to be 89.6%.

With `OCc1c[nH]c2ccccc12` [Indole-3-carbinol] + C[C@]1(c2nc3c(C(N)=O)cccc3[nH]2)CCCN1 [Veliparib] (first compound 0.8 µM, partner dose 1.4 µM), the cell count is 74.6%.

`OCc1c[nH]c2ccccc12` [Indole-3-carbinol] + C#Cc1cccc(Nc2ncnc3cc(OCCOC)c(OCCOC)cc23)c1 [erlotinib] (first compound 0.8 µM, partner dose 0.8 µM) had a cell count of 89%.

As for `C#Cc1cccc(Nc2ncnc3cc(OCCOC)c(OCCOC)cc23)c1` [erlotinib] + Cn1nnc2c(C(N)=O)ncn2c1=O [temozolomide] (first compound 0.8 µM, partner dose 2 µM), the cell count came out at 81.7%.

`C#Cc1cccc(Nc2ncnc3cc(OCCOC)c(OCCOC)cc23)c1` [erlotinib] + Cc1nc(Nc2ncc(C(=O)Nc3c(C)cccc3Cl)s2)cc(N2CCN(CCO)CC2)n1 [dasatanib] (first compound 0.8 µM, partner dose 0.004 µM) yielded a cell count of 75.2%.

Molecule `Cn1c(Nc2ccc(C(F)(F)F)cc2)nc2cc(Oc3ccnc(-c4ncc(C(F)(F)F)[nH]4)c3)ccc21` + Cn1nnc2c(C(N)=O)ncn2c1=O [temozolomide] (first compound 0.08 µM, partner dose 2 µM) registered a cell count of 82.8%.

`COCC[n+]1c2c(n(Cc3cnccn3)c1C)C(=O)c1ccccc1C2=O` + C[C@]1(c2nc3c(C(N)=O)cccc3[nH]2)CCCN1 [Veliparib] (first compound 0.0004 µM, partner dose 1.4 µM) gave a cell count of 91.1%.

Take `OCc1c[nH]c2ccccc12` [Indole-3-carbinol] + COc1cc(Nc2ncc(F)c(Nc3ccc4c(n3)NC(=O)C(C)(C)O4)n2)cc(OC)c1OC [Tamatinib] (first compound 0.8 µM, partner dose 0.4 µM): the cell count came to 86.6%.

`Clc1ccc(Nc2nnc(Cc3ccncc3)c3ccccc23)cc1` [vatalanib] + C[C@@H]1CCN(C(=O)CC#N)C[C@@H]1N(C)c1ncnc2[nH]ccc12 [CP690550] (first compound 2 µM, partner dose 1 µM): the cell count was 113%.

`C#Cc1cccc(Nc2ncnc3cc(OCCOC)c(OCCOC)cc23)c1` [erlotinib] + COCC[n+]1c2c(n(Cc3cnccn3)c1C)C(=O)c1ccccc1C2=O [YM155] (first compound 0.8 µM, partner dose 0.0004 µM) yielded a cell count of 91.3%.

For the molecule `Clc1ccc(Nc2nnc(Cc3ccncc3)c3ccccc23)cc1` [vatalanib] + COCC[n+]1c2c(n(Cc3cnccn3)c1C)C(=O)c1ccccc1C2=O [YM155] (first compound 2 µM, partner dose 0.0004 µM), the cell count is 90.5%.

Consider `OCc1c[nH]c2ccccc12` [Indole-3-carbinol] + COc1ccc(Cl)c(Nc2nc3ccccc3nc2NS(=O)(=O)c2cccc(NC(=O)C(C)(C)N)c2)c1 [XL147] (first compound 0.8 µM, partner dose 0.8 µM), for which the cell count amounted to 95.5%.

For `Nc1cccc2c1CN(C1CCC(=O)NC1=O)C2=O` (stereo unspecified) [lenalidomide] + C[C@]1(c2nc3c(C(N)=O)cccc3[nH]2)CCCN1 [Veliparib] (first compound 1 µM, partner dose 1.4 µM), the cell count is 97.5%.
